Experimental data taken from PubChem BioAssay AID1508642 (National Center for Advancing Translational Sciences (NCATS), 2021).
Hit rate of the full screen: of about 43,000 compounds, about 200 (0.47%) were called active. Roughly 12% stayed inconclusive and do not appear here. Calls follow the shape of the dose curve; as a rule, active = well fitted cell-killing curve with a large enough effect; inconclusive = small, poorly fitted or top-dose-only effect, or effect the other way; inactive = flat fitted curve, though single readings scatter. Some of the results follow.

Assay: Cell viability qHTS assay in S16 Pmp22-F2sN cells; also: nearly all actives have a fitted effect of over 65% in size
Conditions: S16 Pmp22-F2sN Schwann cells (luciferase reporters placed in the Pmp22 gene) viability, CellTiter-Glo, 24 h; series mostly up to 57.5 µM; activity change, negative = cytotoxicity: at the top concentration
How it was run: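 CellTiter-Glo counter-screen, qHTS, 1536-well. Cells: S16(c9) Pmp22-F2sN, 500-1,000/well in DMEM + 10% FBS. Cpd 23 nL pin transfer, 24 h, 37C/5% CO2. Read: luminescence, CCD imager.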
% is scaled to controls: 0 for no effect and ±100 for the full control effect; potency is read from the fitted curve at half-maximal effect.

Structure (SMILES)	activity change, negative = cytotoxicity	Potency
COc1ccc(NC(=O)CCc2nc3c(C)nn(-c4ccc(C)cc4)c3n(C)c2=O)cc1	inactive: -4.01%	–
CCCS(=O)(=O)c1c(S(=O)(=O)CCC)c2cc(CC)ccn2c1C(=O)c1ccc(Cl)cc1	inactive: -0.851%	–
Cc1cccc(N(CC(=O)NCCSCc2cccc(Cl)c2)S(=O)(=O)c2ccccc2)c1C	inactive: -2.25%	–
Cc1cc(NC(=O)c2ccc3c(c2)OCCO3)cc(-c2nc3ccccc3o2)c1O	inactive: -7.64%	–
Cc1ccc(NS(=O)(=O)c2cc(-c3cnc(C4CC4)o3)ccc2C)cc1Cl	–	active: 14.1 µM
COc1ccc(NC(=O)N2CCOc3ccc(Cl)cc32)cc1	inactive: -7.32%	–
Cc1ccc(C(=O)COC(=O)c2cccc(NC(=O)c3ccc(Cl)cc3Cl)c2)cc1	inactive: 5.44%	–
CCC(C(=O)NCc1ccc(OC)c(OC)c1)n1nc(C)c2c(C)n(-c3ccc(C)cc3)nc2c1=O (stereo not given)	inactive: -14%	–
CCOC(=O)c1c(NC(=O)c2cc3nc(-c4ccc(Br)cc4)cc(C(F)(F)F)n3n2)sc(C(C)=O)c1C	inactive: 2.53%	–
CC(C)Oc1ccc(C(=O)NCC(c2ccc(N(C)C)cc2)N2CCCC2)cc1 (stereo not given)	inactive: 2.09%	–
CCOc1ccccc1NC(=O)CCNS(=O)(=O)c1cccc2nonc12	inactive: 4.56%	–
Cc1ccc(C)c(NC(=O)Cn2cc(C(=O)c3cccs3)c3ccccc32)c1	inactive: -14.9%	–
COc1cc(C(=O)Nc2ccc3c(c2)N(C2CCCC2)C(=O)c2ccccc2S3)cc(OC)c1OC	inactive: -29.6%	–
CCOc1ccccc1NC(=O)C1CCCN1S(=O)(=O)c1ccc2c(c1)C(C)(C)C(=O)N2C (stereo not given)	inactive: -7.3%	–
CCCCNC(=O)c1cc(-c2ccc(OC)cc2)nc2n[nH]c(-c3cccc([N+](=O)[O-])c3)c12	–	active: 15.8 µM
CCc1ccc(NC(=O)CCNS(=O)(=O)c2ccc3c(c2)oc(=O)n3C)cc1	inactive: -3.5%	–
CCOC(=O)c1ccccc1NC(=O)CN1CCCN(Cc2cccc(Cl)c2)S1(=O)=O	inactive: -19.1%	–
COc1ccc(Cc2nc3c4cnn(-c5ccccc5F)c4ncn3n2)cc1	inactive: 2.11%	–
COc1ccc(Cl)cc1N(C)C(=O)c1cc2c(=O)oc3ccc(C)cc3c2s1	inactive: -0.381%	–
CCc1nn(CC(=O)N(C)Cc2ccccc2)c(=O)c2cc3sccc3n12	inactive: -5.82%	–
Cc1ccc(CSCCC(=O)NCc2ccc(F)cc2Cl)cc1	inactive: 15.1%	–
COc1ccc(-c2nnc(SCC(=O)N(C)C3CCCCC3)o2)cc1OC	inactive: 27.2%	–
CCOc1ccc(C(=O)c2oc3ccccc3c2NC(=O)c2cc(-c3ccc(Cl)cc3)on2)cc1	inactive: -2.32%	–
O=S(=O)(NCC(c1ccco1)S(=O)(=O)c1cccs1)c1ccc(Cl)cc1 (stereo not given)	inactive: -13.8%	–

Structure (SMILES)	activity change, negative = cytotoxicity	Potency
CN(Cc1ccccc1)c1ncnc2c1nnn2C	inactive: -17.8%	–
O=c1oc2c3c(ccc2c2ccccc12)OCN(Cc1ccccc1Cl)C3	inactive: -2.84%	–
COC(=O)c1sccc1S(=O)(=O)N(CC(=O)Nc1ccccc1F)c1ccccc1	inactive: -3.27%	–
Cc1ccc(NC(=O)Nc2ccccc2OCc2cc(=O)n3ccccc3n2)c(Cl)c1	inactive: -1.15%	–
O=C(CCCCn1c(=O)c2ccccc2n(CC(=O)Nc2ccc(F)cc2F)c1=O)NCCc1ccccc1	inactive: 10.9%	–
COC(=O)c1c(NC(=O)Cc2coc3ccc(C(C)C)cc23)sc2c1CCC2	inactive: -19.1%	–
CCn1cc(C(=O)NCCCOC)c(=O)c2cc(S(=O)(=O)N3CCCC3)ccc21	inactive: -14.1%	–
Cc1cccc(C(=O)n2nc(-c3cccnc3)nc2NCc2ccccc2)c1	inactive: 0.092%	–
Cc1ccc(C(=O)NCCc2ccc(S(N)(=O)=O)cc2)cc1-n1cnc2cccnc21	inactive: 2.86%	–
Cc1ccc(N=C2NC(=O)CC(C(=O)Nc3cc(C(F)(F)F)ccc3Cl)S2)cc1 (stereo not given)	inactive: -13.6%	–
O=S(=O)(c1ccc(Cl)cc1)c1nnn2c1nc(NCc1ccc3c(c1)OCO3)c1sccc12	inactive: 4.33%	–
Cc1ccc(N(CC(=O)Nc2cc(C)ccc2C)S(=O)(=O)c2c(C)noc2C)cc1	inactive: -1.73%	–
Cc1ccc(COC(=O)c2[nH]c3c(c2C)C(=O)CC(c2ccc(N(C)C)cc2)C3)cc1 (stereo not given)	inactive: -4.75%	–
CCC(=O)N1c2ccccc2CC1C(=O)NCc1ccc(N(C)C)cc1 (stereo not given)	inactive: 3.37%	–
CC(=O)c1ccc(NC(=O)c2ccc(-n3cnnc3)cc2)cc1	inactive: -2.76%	–
CCCCN(CC)CCNC(=O)C1CCCN(c2ncnc3onc(C)c23)C1 (stereo not given)	inactive: -3.26%	–
COc1ccc(-n2c(SCC(=O)c3ccccc3)nc3c([nH]c4ccccc43)c2=O)cc1	inactive: 13.6%	–
CCOc1ccccc1NC(=O)C1CCN(S(=O)(=O)c2ccc3c(c2)CCCN3C(C)=O)CC1	inactive: -0.724%	–
CC(C)c1ccc(NS(=O)(=O)c2ccc3[nH]cc(C(=O)NCCc4ccccc4)c(=O)c3c2)cc1	inactive: -4.81%	–
CCOC(=O)c1cc(-c2ccc(F)cc2)n(CCC(=O)Nc2nc3ccc(OC)cc3s2)c1C	inactive: -17.3%	–
CCOC(=O)CC(NC(=O)CCc1c(C)nc2c(c1C)c(=O)n(C)c(=O)n2C)c1ccc(OCC)c(OC)c1 (stereo not given)	inactive: -17%	–
CC(=O)Nc1ccc(NC(=O)C(Cc2ccccc2)NS(=O)(=O)c2ccc3c(c2)oc(=O)n3C)cc1 (stereo not given)	inactive: -9.78%	–
CCOc1cc(-c2ccc(OC(=O)c3ccc(OC)cc3)c(OC)c2)cc(=O)c2c(C)oc(C)c12	inactive: -14.9%	–
CCn1nc(C)c2c(-c3ccccc3)cc(=O)n(C(C)C(=O)NCCc3ccc(OC)c(OC)c3)c21 (stereo not given)	inactive: -8.92%	–

Structure (SMILES)	activity change, negative = cytotoxicity	Potency
Cc1ccc(-n2nc(C)c3c(C)cc(=O)n(CC(=O)NC(C)c4ccccc4)c32)cc1 (stereo not given)	inactive: 2.92%	–
Cn1c(=O)c2sccc2n2c(CCCC(=O)NC3CCCCC3)nnc12	inactive: -11.3%	–
COc1ccc(NCc2cc3cc4c(cc3n(CC(=O)Nc3ccc(C)c(C)c3)c2=O)OCO4)cc1	inactive: 8.93%	–
CC(C)(C)OC(=O)N1CCC(c2c(C(=O)N3CCCCC3)cnn2-c2ccccc2Cl)CC1	inactive: 1.33%	–
Cn1c(=O)oc2cc(S(=O)(=O)CCC(=O)NCCc3ccc(Cl)cc3)ccc21	inactive: 8.43%	–
COc1ccccc1OCc1nc(C#N)c(NCc2ccc(C)cc2)o1	inactive: -9.67%	–
COc1ccc(-c2nn(-c3ccccc3)cc2C2NC(=O)NC(C)=C2C(=O)OC(C)C)cc1Cl (stereo not given)	inactive: -22.1%	–
Cc1ccc(Cl)cc1N1CCN(S(=O)(=O)c2cc(Br)cc3c2N(C(=O)C2CC2)CC3)CC1	inactive: 8.92%	–
CCCNC(=O)c1ccc(-n2c(-c3ccccc3)cc3c2CCC(C)C3)cc1 (stereo not given)	inactive: 25.3%	–
CCOc1ccccc1NC(=O)c1c(NCc2sccc2C)sc2c1CCCCC2	inactive: 6.22%	–
O=c1oc2ccc(Br)cc2cc1-c1csc(-c2ccc(Cl)cc2)n1	inactive: -0.102%	–
O=C(CC(NCc1cccnc1)C(=O)O)Nc1ccc(F)cc1 (stereo not given)	inactive: -0.102%	–
Cc1cccc(N2CCN(C(=O)CS(=O)(=O)c3cccc4nsnc34)CC2C)c1 (stereo not given)	inactive: -2.39%	–
CCCN1C(=O)C2(c3ccccc31)c1c(oc3ccccc3c1=O)C(=O)N2CCO (stereo not given)	inactive: -3.98%	–
C=Cc1ccc(Cn2c(C(=O)O)c(CNCc3cc(Br)ccc3OC)c3ccc(C)cc32)cc1	inactive: 1.53%	–
CN(C)S(=O)(=O)c1ccc2c(c1)N(CC(=O)N1CCN(c3ccc(F)cc3)CC1)CCS2	inactive: 12.9%	–
NC(=O)CSc1ncc2c(n1)-c1ccccc1N(Cc1cccc(F)c1)S2(=O)=O	inactive: 8.46%	–
COc1ccc2nc3oc(C(=O)NCc4ccccc4OC)cc3cc2c1	inactive: 10.1%	–
COc1ccccc1-c1nnc(C2CCN(C(=O)c3ccc(C)cc3)CC2)o1	inactive: 7.55%	–
COc1ccc(-c2noc(-c3nnn(-c4cc(C)ccc4C)c3N)n2)cc1	inactive: 6.22%	–
Cc1ccc(-n2ncc(C(=O)NCCc3ccsc3)c2C2CCN(C(=O)OC(C)(C)C)CC2)cc1C	inactive: -11.6%	–
Cc1nc2ccccc2c(=O)n1-c1ccc(NC(=O)C(F)(F)F)cc1	inactive: 4.91%	–
CC1CCN(c2ccc(-c3nc(C(C)C)no3)cc2[N+](=O)[O-])CC1	inactive: 5.25%	–
CCN(CC)CCNC(=O)c1ccc(Cn2c(=O)c3cccn3c3cccnc32)cc1	inactive: 0.63%	–

Structure (SMILES)	activity change, negative = cytotoxicity	Potency
Cc1ccc(-n2nc(CO)c(C(=O)NCc3cccs3)n2)cc1	inactive: -12.7%	–
O=C(Nc1ccc(Cl)cc1)N1CCN(c2ccc3nnc(-c4ccc(F)cc4)n3n2)CC1	inactive: -27.5%	–
COc1ccccc1Nc1cc(C(=O)NCc2cccs2)c2ccccc2n1	inactive: -3.3%	–
Cc1cc(NC(=O)Nc2nc3c(s2)CCCCCC3)ccc1Br	inactive: 28.9%	–
Cc1ccc(NCc2nc3ccccc3n2CCOc2ccccc2)cc1	inactive: -16.8%	–
CCC(=O)N1CCc2cc(S(=O)(=O)CCC(=O)NCc3ccccc3OC)ccc21	inactive: 1.45%	–
Cc1cc(C)c(S(=O)(=O)NCC(c2cccs2)S(=O)(=O)c2ccccc2)c(C)c1 (stereo not given)	–	active: 12.6 µM
Cc1nc(-c2ccccc2)sc1CCNS(=O)(=O)c1ccc(Br)cc1	inactive: -11.9%	–
CCNC(=O)Cc1ccc(NC(=O)N2CCCCc3ccccc32)cc1	inactive: 16.4%	–
CCCn1c2ccccc2c2cnn(CC(=O)NCCc3ccc(OC)cc3OC)c(=O)c21	inactive: 14.8%	–
CCN(CC)c1nn2c(=O)c(C(=O)NCc3ccc(F)cc3)cnc2s1	inactive: 27.5%	–
COc1ccc(CC(=O)NCCc2csc(-c3ccc(Cl)cc3)n2)cc1	inactive: 15.9%	–
CCn1nc(C)c(CCN(C)C(=O)Nc2cc(Cl)ccc2C)c1C	inactive: -2.08%	–
CN(C1CCCCC1)S(=O)(=O)c1ccc2c(c1)c(=O)c(C(=O)NCCc1ccccc1)cn2C	inactive: 0.551%	–
Cc1cccc(NC(=O)C2CCCN(S(=O)(=O)c3cnc[nH]3)C2)c1C (stereo not given)	inactive: 7.82%	–
Cc1ccc2c(c1)cc(C(=O)Nc1ccc(F)cc1F)n2C	inactive: -17.4%	–
CCC(C)NC(=O)c1cnn(-c2ccc(Cl)cc2)c1C1CCN(C(=O)OC(C)(C)C)CC1 (stereo not given)	inactive: -13.4%	–
O=C(NCCc1ccc(Cl)cc1)c1ccc(CS(=O)Cc2cccc(Cl)c2)o1 (stereo not given)	inactive: -18.6%	–
Nc1nnc(SCC(=O)Nc2ccccc2C(F)(F)F)s1	inactive: 10.6%	–
COC(=O)c1n[nH]n(-c2ccccc2)c1=O	inactive: 4.41%	–
CCOC(=O)c1cc(NC(=O)c2ccc(F)cc2)c(=O)n2c1oc1ccccc12	inactive: 9.36%	–
Cc1ccc(C(=O)N(Cc2ccc(N(C)C)cc2)Cc2ccco2)cc1	inactive: -6.64%	–
Cn1c(=O)c2cc(C(=O)N3CCN(c4ccc(Cl)cc4)CC3)sc2c2ccccc21	inactive: 6.57%	–
